Test results reported in the RNAGym collection of RNA variant scans (doi:10.7554/elife.90254).
Read counts are not given, so values of variants with three or more changes are uncertain.

B1: LINE1-mini (parent)
chain: GGCAGAGCUCAACACAGCGUGGCAAAGUGGCUGUGGCUAGACUGCC

Variants of: B1
Experiment: self-cleavage, relative activity (ratio to wild type); higher = more cleavage; in vitro, sequencing; the parent is a self-cleaving ribozyme

| Variant | self-cleavage |
| --- | --- |
| C3A C13A U38A G40U | 0.2 |
| C3A A6U G33U U38G | 0.19 |
| C3A C13U U28G | 0.98 |
| C3A A6U A12U A25C A26C G27U | 0.07 |
| C3A A6U G17U | 0.17 |
| C3A A12U G29C G33A | 0.11 |
| C3A C10U G40A | 0.06 |
| C3A C10U C15G G40U | 0.18 |
| C3A C8A C13G U34A C45U | 2.29 |
| C3A G5U A11U A12C A14C C15U C37A | 0.01 |
| C3A C8U U9C C15A | 0.18 |
| C3A A11C G33U | 0.04 |
| C3A C10A G40U A41U | 0.04 |
| C3A C10A U43C | 0.02 |
| C3A C15U A25U | 0.33 |
| C3A A11C C13U C23A G36A A39G | 0.01 |
| C3A C13A C15G U20G C31A C45U | 0.04 |
| C3A C23U U28G | 0.11 |
| C3A G5C G29C C31U | 0.26 |
| C3A C23A A25U G36A G40C | 0.05 |
| C3A C8U U9C C10G G19U C42U | 0.01 |
| C3A A12U C18U G40U | 0.07 |
| C3A A11G A16C C37U | 0.01 |
| C3A A12U C13U G22A | 0.07 |

| Variant | self-cleavage |
| --- | --- |
| C3A C10G C15A U20A A25C | 0.02 |
| C3A C13A A39U | 0.24 |
| C3A C15A G17C U20A A39U | 0.04 |
| C3A A14G C42U | 0.17 |
| C3A A26U C37G | 0.21 |
| C3A A26U C37A | 0.56 |
| C3A C8G G27A G30U U34A C46A | 0.07 |
| C3A C10A A11U U43C | 0.01 |
| C3A A14U G40A | 0.09 |
| C3A G5A A39G | 0.11 |
| C3A C13G A26G | 0.12 |
| C3A A11G G27U C31U | 0.02 |
| C3A A26C U28A C31G G33U A41G | 0.13 |
| C3A A6G A11C G19U G29A G44A C46U | 0.01 |
| C3A C8G U32G G36C C46A | 0.1 |
| C3A A6U G22U A25G | 0.63 |
| C3A A11G G27U | 0.11 |
| C3A C10U G33C U34G | 0.08 |
| C3A A12C A14C G17C | 0.03 |
| C3A G5A G30C | 0.2 |
| C3A C8G A16U G19A G21C G44A | 0.08 |
| C3A A11G G30U | 0.04 |
| C3A C15U A26U G44U | 0.25 |
| C3A A26U U38C | 0.72 |

| Variant | self-cleavage |
| --- | --- |
| C3A A12C G27U G30C | 0.01 |
| C3A A39C U43C | 0.07 |
| C3A C8A G21C C31A G40U | 0.12 |
| C3A C18G U28C C45U | 0.13 |
| C3A A16U G40U | 0.11 |
| C3A C23U G27U | 0.47 |
| C3A G5A G27A | 0.09 |
| C3A A6C U9A A12C C18A U34A | 0.03 |
| C3A C18A G44C | 0.83 |
| C3A A11C A26C | 0.04 |
| C3A A6G A25C | 0.3 |
| C3A A12G A39U C45A | 0.01 |
| C3A A11U C13U G21U C31U G44U | 0.03 |
| C3A C8G C13U G36U A39G | 0.23 |
| C3A A6U C10A A11C A16U G33U U34C | 0.02 |
| C3A C18U G19U G33U | 0.1 |
| C3A C13A G33U C37A A39G | 0.06 |
| C3A C18U G29A | 1.64 |
| C3A A11C G30U G35A G44C | 0.02 |
| C3A C23G C37A C45G | 0.21 |
| C3A C15A C31U | 0.15 |
| C3A A24C A41U C42G C46A | 0.08 |
| C3A C13G G36C | 0.14 |
| C3A A6U C37U C42G | 0.01 |

| Variant | self-cleavage |
| --- | --- |
| C3A C15G A16C A26U U43C | 0.09 |
| C3A A14C A39C | 0.33 |
| C3A A24C A41U C42U | 0.24 |
| C3A A12C A26U G35A | 0.03 |
| C3A A26U C46A | 0.15 |
| C3A A24G G29A C31A U32C | 0.13 |
| C3A A11U C13G C18U G19C A26G C42G | 0 |
| C3A A14G C15U U32G | 0.08 |
| C3A G5A G19A C31G G36A | 0.76 |
| C3A A12U C13U A14U G29C G33U C42G | 0.07 |
| C3A A6G G7A A11U C15A A41U | 0.02 |
| C3A A14U G27A | 0.13 |
| C3A C10A G17A G21U U38A G40C U43C C45A | 0.02 |
| C3A G5U A6C A14U | 0.14 |
| C3A C8U A25G A26U G40A C46A | 0.26 |
| C3A C15U U43G G44C | 1.55 |
| C3A C15G G30U | 0.13 |
| C3A A11U G35U C37U | 0.05 |
| C3A A24U U32A | 0.26 |
| C3A A24G A39U | 0.18 |
| C3A A11U C15G G33C U34A | 0.04 |
| C3A A14C G29A G33A | 0.41 |
| C3A C37G U38G | 0.02 |
| C3A A26G G29A G44U | 0.86 |

| Variant | self-cleavage |
| --- | --- |
| C3A C8A A12G C23U G27C G33A G36A | 0.75 |
| C3A G5C G33U A39C | 0.06 |
| C3A A11U G33U | 0.07 |
| C3A C13A C15U C42G | 0.98 |
| C3A A24G A26U G33C U34C U38G C45U | 0.04 |
| C3A C13G C46A | 0.14 |
| C3A G5U A16C U28C G29C | 0.1 |
| C3A C15U G27C C37A | 0.02 |
| C3A A6G U34G G35U | 0.3 |
| C3A A11U C15U C23A | 0.03 |
| C3A C13G G36C U38A G44A | 0.11 |
| C3A A24G A25G G27U C31G C45A | 0.07 |
| C3A G5C C23U | 0.09 |
| C3A A26C U43A | 0.14 |
| C3A A6C C31G | 0.02 |
| C3A A11C A41U | 0.04 |
| C3A G5C C31U G40U | 0.05 |
| C3A A16U A26G | 0.25 |
| C3A G5A C10U G36U C46A | 0.14 |
| C3A C15U G29U G33C | 0.46 |
| C3A A12C U32A G36A C37A | 0.05 |
| C3A C15G C23G C37U | 0.02 |
| C3A A26U A41C | 0.1 |
| C3A G5C C10G | 0.04 |

| Variant | self-cleavage |
| --- | --- |
| C3A A11C C13A C37G | 0.03 |
| C3A C15A G19C A25G G29U | 0.09 |
| C3A C13A C18A G40A C46G | 0.02 |
| C3A A6C C13A A16U G19A | 0.46 |
| C3A C8A A16C G22A C42U | 0.88 |
| C3A A6U A26G G27A | 0.27 |
| C3A A12G C23U C31U U38A A41G | 0.44 |
| C3A C37U A41C | 0.04 |
| C3A C23U A26U | 0.7 |
| C3A C31A C45U | 0.04 |
| C3A A12G A14C G33C | 0.07 |
| C3A C31A U38C A39C | 0.05 |
| C3A A6U G27C G29A | 0.05 |
| C3A C10A G17U G44A | 0.06 |
| C3A A16G G19C C31U | 0.05 |
| C3A A16C G21U C23G | 0.64 |
| C3A A14U G33A C37U G44A | 0.1 |
| C3A C13G C18G G29U G30U A41G | 0.13 |
| C3A G5A U9A G29U | 0.34 |
| C3A G5A G21C | 0.17 |
| C3A A6U U20A A25G A26C C42G | 0.07 |
| C3A C13G U28G | 0.61 |
| C3A A12C G40A U43C | 0.01 |
| C3A C8G C46G | 0.12 |

| Variant | self-cleavage |
| --- | --- |
| C3A G5A A24C G33C A41G | 0.19 |
| C3A C10A G21A C31A | 0.05 |
| C3A A16U C31A | 0.15 |
| C3A C10G A11C | 0.04 |
| C3A G5A A11G A26C G27U G40U C46U | 0.01 |
| C3A A12C C18G U38C | 0.05 |
| C3A A6U C8U C10A A12U C18U | 0.03 |
| C3A A14C A25U C46G | 0.08 |
| C3A A16C G22C | 0.29 |
| C3A A25C C31U U38A G44U | 0.33 |
| C3A A6U G19U G40C | 0.23 |
| C3A C8A G19A | 1.83 |
| C3A A11C G29A U43A | 0.08 |
| C3A C10G C31U | 0.02 |
| C3A C13A G35C C37U | 0.1 |
| C3A A24U A25U C45A | 0.23 |
| C3A C8A A14U G19A A26C U34A A39U | 0.03 |
| C3A C15A G29A C37A | 0.21 |
| C3A C23U G29U | 0.22 |
| C3A C8U A16C G21A G30U G33A | 0.39 |
| C3A A11C U38A G40U | 0.01 |
| C3A C31G U32G | 0.13 |
| C3A A25C G40A | 0.1 |
